{
  "source": "the RNAGym collection of RNA variant scans (doi:10.1093/nar/gkz1192)",
  "parents": {"B1": {"name": "CPEB3 Ribozyme (parent)", "chain": "UAACAGGGGGCCACAGCAGAAGCGUUCACGUCGCAGCCCCUGUCAGAUUCUGGUGAAUCUGCGAAUUCUGCUGUAUAUCUC"}},
  "note": "The source gives no read counts; variants with many changes may rest on few reads.",
  "data": [
    {"variants_of": "B1", "assay": "self-cleavage, relative activity (ratio to wild type); higher = more cleavage; in vitro, sequencing", "procedure,_shortened": "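Relative activity was defined as the cleaved/total read fraction for a variant divided by the same fraction for the unmutated ribozyme. CPEB3 self-cleaving ribozyme libraries were made by rounds of error-prone PCR, barcoded, and transcribed in vitro with T7 RNA polymerase for 5 hours at 37°C, and cleavage ran through transcription plus a 15 min DNase I step before EDTA. Illumina sequencing of template-switched reverse transcripts gave the reads, and DNA sequencing mapped the barcodes. Averages come from three batches, using variants with at least 5 reads.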", "values": [
      {"variant": "UAACAGGGGGCCACAGCGGAAGCGUUCACGUCGCAGCCCCUGUCAGAUUCCGGUGAAUCUGCGAACUCCGCUGUAUAUCUC", "note": "[A18G U51C U66C U69C]", "self-cleavage": 0.28},
      {"variant": "UAACAGGGGGCCACAGCGGAAGCGUUCACGUCGCAGCCCCUGUCAGAUUCUGGUGAAUCUGCGAACUCUGCUGUAUAUCAC", "note": "[A18G U66C U80A]", "self-cleavage": 0.28},
      {"variant": "UAACAGGGGGCCACAGCUGGAGCGUGCACGUCGCAGCCCCUGUCAGAUUCUGGUGAAUCUGCGAAUUCAGCUGUAUAUCUC", "note": "[A18U A20G U26G U69A]", "self-cleavage": 0.23},
      {"variant": "UAACAGGGGGCCACAGCUGGAGCGUCCACGUCGCAGCCCCUGUCAGAUUCUGGUGAAUCUGCGAAUUCUGCCGUAUAUCUC", "note": "[A18U A20G U26C U72C]", "self-cleavage": 0.09},
      {"variant": "UAACAGGGGGCCACAGCGGAAGCGUUCACGUCGCAGCCCCUGUCAGAUUCUGGCGAGUCUGCGAGUUCUGCUGUAUAUCAC", "note": "[A18G U54C A57G A65G U80A]", "self-cleavage": 0.06},
      {"variant": "UAACAGGGGGCCACAGCGGAAGCGUUCACGUCGCAGCCCCUGUCAGAUUCUGGUGAACCCGCGAAUACUGCUGUAUAUCUC", "note": "[A18G U58C U60C U67A]", "self-cleavage": 0.13},
      {"variant": "UAACAGGGGGCCACAGCGGAAGCGUUCACGUCGCAGCCCCUGUCAGAUUCUGGUGAAUCUGCGAACUCUGCAGUAUAACCC", "note": "[A18G U66C U72A U78A U80C]", "self-cleavage": 0.39},
      {"variant": "UAACAGGGGGCCACAGCGGAAGCGUUCACGUCGCAGCCCCUGUCAGAUUCUGGUGAAUCUGCGAAUUCUGCGGUAUCUCUC", "note": "[A18G U72G A77C]", "self-cleavage": 0.32},
      {"variant": "UAACAGGGGGCCACAGCGGAAGCGUUCACGUCGCAGCCCCUGUCAGAUUCUGGUGAAUCAGCGAAUACUGCUGUAUAUCUC", "note": "[A18G U60A U67A]", "self-cleavage": 0.2},
      {"variant": "UAACAGGGGGCCACAGCUGGAGCGUUCACGUCGCAGCCCCUGUCAGAUUCUGGUGGAUCUGCGAAUUCCGCUGUAUAUCUC", "note": "[A18U A20G A56G U69C]", "self-cleavage": 0.15},
      {"variant": "UAACAGGGGGCCACAGCGGAAGCGUUCACGUCGCAGCCCCUGUCAGAUUCCGGUGAAUCUGCGAAAUCUGCUGUAUAUCUC", "note": "[A18G U51C U66A]", "self-cleavage": 0.43},
      {"variant": "UAACAGGGGGCCACAGCUGGAGCGUUCACGUCGCUGCCCCUGUCAGAUUCUGGUGGAUCCGCGAAUUCUGCUGUAUAUCAC", "note": "[A18U A20G A35U A56G U60C U80A]", "self-cleavage": 0.07},
      {"variant": "UAACAGGGGGCCACAGCGGAAGCGUUCACGUCGCAGCCCCUGUCAGAUUCUGGCGAAUCUGCGAAUUCCGCUGUAUACCUC", "note": "[A18G U54C U69C U78C]", "self-cleavage": 1.06},
      {"variant": "UAACAGGGGGCCACAGCGGAAGCGUUCACGUCGCAGCCCCUGUCAGAUUCUGGUGAAACUGCGAAUUCAGCUGUAUAUCUC", "note": "[A18G U58A U69A]", "self-cleavage": 0.17},
      {"variant": "UAACAGGGGGCCACAGCGGAAGCGUUCACGUCGCAGCCCCUGUCAGAUUCUGGUGAAUCUGCGAAUUCUGCAGUAUUCCUC", "note": "[A18G U72A A77U U78C]", "self-cleavage": 0.23},
      {"variant": "UAACAGGGGGCCACAGCGGAAGCGUUCACGUCGCAGCCCCUGUCAGAUUCUGGAGACUCUGCGAAUUCUGCUGUACAUCUC", "note": "[A18G U54A A57C U76C]", "self-cleavage": 0.21},
      {"variant": "UAACAGGGGGCCACAGCGGAAGCGUUCACGUCGCAGCCCCUGUCAGAUUCCGGUGAAUCUGCGAAUUCUGCUGCAUAUCUC", "note": "[A18G U51C U74C]", "self-cleavage": 0.78},
      {"variant": "UAACAGGGGGCCACAGCGGAAGCGUUCACGUCGCAGCCCCUGUCAGAUUCCGGUGAAACUGCGAAUUCUGCAGUAUACCUC", "note": "[A18G U51C U58A U72A U78C]", "self-cleavage": 0.1},
      {"variant": "UAACAGGGGGCCACAGCGGAAGCGUUCACGUCGCAGCCCCUGUCAGAUUCCGGUGAAUCCGCGAAUUCUGCUGUAUAUCCC", "note": "[A18G U51C U60C U80C]", "self-cleavage": 0.24},
      {"variant": "UAACAGGGGGCCACAGCGGAAGCGUUCACGUCGCAGCCCCUGUCAGAUUCUGGCGAAUUUGCGAAUCCUGCUGUAUAUCUC", "note": "[A18G U54C C59U U67C]", "self-cleavage": 0.07},
      {"variant": "UAACAGGGGGCCACAGCGGAAGCGUUCACGUCGCAGCCCCUGUCAGAUUCUGGCGAAUCUGCGAAUCCUGCUGUAUAUCUC", "note": "[A18G U54C U67C]", "self-cleavage": 0.16},
      {"variant": "UAACAGGGGGCCACAGCGGAAGCGUUCACGUCGCAGCCCCUGUCAGAUUCUGGUGAAUCUGCGAAUCCUGCUGUAUAUUCC", "note": "[A18G U67C C79U U80C]", "self-cleavage": 0.14},
      {"variant": "UAACAGGGGGCCACAGCGGAAGCGUUCACGUCGCAGCCCCUGUCAGAUUCUGGUGAAUCUGCGAAUCCCGCCGUGUAUCUC", "note": "[A18G U67C U69C U72C A75G]", "self-cleavage": 0.1},
      {"variant": "UAACAGGGGGCCACAGCGGAAGCGUUCACGUCGCAGCCCCUGUCAGAUUCUGGUGAAUCUGCGAAUUCUGCCGUAUAUUUC", "note": "[A18G U72C C79U]", "self-cleavage": 0.81},
      {"variant": "UAACAGGGGGCCACAGCUGCAGCGUUCACGUCGCAGCCCCUGUCGGAUUCUGGUGGAUCUGCGAAUUCUGCUGUAUAUCUC", "note": "[A18U A20C A45G A56G]", "self-cleavage": 0.15},
      {"variant": "UAACAGGGGGCCACAGCGGAAGCGUUCACGUCGCAGCCCCUGUCAGAUUCUGGUGAAACUGCGAAUCCUGCUGUAUAUCUC", "note": "[A18G U58A U67C]", "self-cleavage": 0.14},
      {"variant": "UAACAGGGGGCCACAGCGGAAGCGUUCACGUCGCAGCCCCUGUCAGAUUCUGGUGAAUCUGCGAACUCUGCAGUAUAUAUC", "note": "[A18G U66C U72A C79A]", "self-cleavage": 0.27},
      {"variant": "UAACAGGGGGCCACAGCGGAAGCGUUCACGUCGCAGCCCCUGUCAGAUUCUGGAGAAUCUGCGAAUUCUGCAGUAUAUCUC", "note": "[A18G U54A U72A]", "self-cleavage": 0.39},
      {"variant": "UAACAGGGGGCCACAGCGGAAGCGUUCACGUCGCAGCCCCUGUCAGAUUCUGGUGAAUCCGCGAAUUCUUCUGUAUAUCUC", "note": "[A18G U60C G70U]", "self-cleavage": 0.1},
      {"variant": "UAACAGGGGGCCACAGCUGGAGCGUCCACGUCGCAGCCUCUGUCAGAUUCUGGUGUAUCUGCGAAUACUGCUGUAUAUCUC", "note": "[A18U A20G U26C C39U A56U U67A]", "self-cleavage": 0.06},
      {"variant": "UAACAGGGGGCCACAGCGGAAGCGUUCACGUCGCAGCCCCUGUCAGAUUCUGGUGAACUUGCGAAUUCUGCUGUAUACCUC", "note": "[A18G U58C C59U U78C]", "self-cleavage": 0.19},
      {"variant": "UAACAGGGGGCCACAGCUGGAGCGUUCACGUCGCAGCCCCUGUCUGAUUCUGGUGUAUCAGCGAAUUCUGCUGUAUAUCUC", "note": "[A18U A20G A45U A56U U60A]", "self-cleavage": 0.35},
      {"variant": "UAACAGGGGGCCACAGCGGAAGCGUUCACGUCGCAGCCCCUGUCAGAUUCUGGUGAAUCUGCGAAUCCUGCAGUAUAUCUC", "note": "[A18G U67C U72A]", "self-cleavage": 0.15},
      {"variant": "UAACAGGGGGCCACAGCGGAAGCGUUCACGUCGCAGCCCCUGUCAGAUUCUGGCGAAUCUGCGAAUUCUGCUAUAUAUCUC", "note": "[A18G U54C G73A]", "self-cleavage": 1.09}
    ]}
  ]
}
